IC50 is the fitted dose that halves viability relative to control wells, and lower means more sensitive; fits outside the tested doses are given as limits. The AUC spans the tested range (256-fold, ending at the top dose) of the same fit: 1 means no effect, lower means more sensitive. For some of these results: An inferred top dose was calculated from the reported fits. For some of these results: Where an entry number is given, a second screen of the drug exists; the two often differ.
How the values were obtained:
Assay in all cases: Viability of human cancer cell lines after 72 h of drug (GDSC screen)
Tretinoin = compound: CC1=C(/C=C/C(C)=C/C=C/C(C)=C/C(=O)O)C(C)(C)CCC1 [Tretinoin]; conditions: top dose 10 µM; top dose inferred
Procedure: (§1)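 Human cancer cell lines in 384-well plates, medium with 10% serum, drug for 72 h over a 256-fold dose range (nine 2-fold or five 4-fold steps up to the top dose). Adherent lines were fixed and stained with the nucleic acid dye Syto60, suspension lines read with resazurin; signal relative to control wells, capped at 0 and 100%. One two-parameter sigmoid per drug and line, fitted in a mixed model over all curves with the slope shared within a line.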

GSK690693 = compound: CCn1c(-c2nonc2N)nc2c(C#CC(C)(C)O)ncc(OC[C@H]3CCCNC3)c21 [GSK690693]; conditions: top dose 10.24 µM; top dose inferred
Procedure: as §1

UNC0638 = compound: COc1cc2c(NC3CCN(C(C)C)CC3)nc(C3CCCCC3)nc2cc1OCCCN1CCCC1 [UNC0638]
Procedure: as §1

WH-4-023 = compound: COc1ccc(N(C(=O)Oc2c(C)cccc2C)c2ccnc(Nc3ccc(N4CCN(C)CC4)cc3)n2)c(OC)c1 [WH-4-023]; conditions: top dose 5.12 µM; top dose inferred
Procedure: as §1

SB-505124 = compound: Cc1cccc(-c2[nH]c(C(C)(C)C)nc2-c2ccc3c(c2)OCO3)n1 [SB-505124]; conditions: top dose 10 µM; top dose inferred
Procedure: as §1

BX-795 = compound: O=C(NCCCNc1nc(Nc2cccc(NC(=O)N3CCCC3)c2)ncc1I)c1cccs1 [BX-795]; conditions: top dose 5 µM; top dose inferred
Procedure: as §1

PI-103 = compound: Oc1cccc(-c2nc(N3CCOCC3)c3oc4ncccc4c3n2)c1 [PI-103]; conditions: top dose 10.24 µM
Procedure: as §1

[1] = top dose 20 µM, screen: GDSC drug entry 1236, top dose inferred
[2] = top dose 40 µM, screen: GDSC drug entry 245

Cell Line	AUC (Tretinoin)	IC50 (Tretinoin) [µM]	AUC (GSK690693)	IC50 (GSK690693) [µM]	AUC (UNC0638; [1])	IC50 (UNC0638; [1]) [µM]	AUC (UNC0638; [2])	IC50 (UNC0638; [2]) [µM]	AUC (WH-4-023)	IC50 (WH-4-023) [µM]	AUC (SB-505124)	IC50 (SB-505124) [µM]	AUC (BX-795)	IC50 (BX-795) [µM]	AUC (PI-103)	IC50 (PI-103) [µM]
KARPAS-620 (haematopoietic neoplasm, suspension)	0.99	> 10	0.554	0.878	0.722	4.76	0.488	2.33	0.985	> 5.12	0.977	> 10	0.938	> 5	0.142	0.0622
KCL-22 (chronic myeloid leukaemia, suspension)	0.979	> 10	0.898	9.17	0.822	9.31	0.634	5.48	0.409	0.188	0.981	> 10	0.891	4.16	0.24	0.133
KE-37 (lymphoblastic leukaemia, suspension)	0.956	> 10	0.152	0.081	0.85	10	0.601	4.42	0.975	> 5.12	0.985	> 10	0.81	1.91	0.308	0.215
KELLY (neuroblastoma, adherent)	0.877	8.51	0.989	> 10.2	0.608	2.4	0.603	4.65	0.972	> 5.12	0.839	5.96	0.86	3.58	0.498	0.634
KGN (ovary, adherent)	0.977	> 10	0.928	> 10.2	0.789	10.9	0.64	6.66	0.677	1.12	0.834	8.59	0.797	2.94	0.2	0.0656
KINGS-1 (glioma, adherent)	0.978	> 10	0.968	> 10.2	0.802	14.5	0.587	4.73	0.64	0.907	0.951	> 10	0.836	> 5	0.686	2.61
KLE (endometrium, adherent)	0.954	> 10	0.868	> 10.2	0.945	> 20	0.848	> 40	0.612	0.772	0.975	> 10	0.959	> 5	0.62	1.65
KM12 (large intestine, adherent)	0.983	> 10	0.846	8.48	0.981	> 20	0.687	8.76	0.978	> 5.12	0.984	> 10	0.842	3.96	0.716	2.77
KM-H2 (Hodgkin lymphoma, suspension)	0.971	> 10	0.98	> 10.2	0.988	> 20	0.988	> 40	0.945	> 5.12	0.99	> 10	0.993	> 5	0.585	1.05
KMOE-2 (acute myeloid leukaemia, suspension)	0.967	> 10	0.946	> 10.2	0.802	8.62	0.643	5.91	0.989	> 5.12	0.969	> 10	0.857	3.39	0.924	> 10.2
KNS-42 (glioma, adherent)	0.821	7.3	0.984	> 10.2	0.854	> 20	0.749	15.2	0.857	> 5.12	0.976	> 10	0.956	> 5	0.881	> 10.2
KOPN-8 (B-cell leukaemia, suspension)	0.977	> 10	0.96	> 10.2	0.794	7.75	0.67	6.88	0.963	> 5.12	0.982	> 10	0.807	2.13	0.364	0.286
KP-N-YN (neuroblastoma, adherent)	0.987	> 10	0.983	> 10.2	0.808	11.6	0.755	14.8	0.891	> 5.12	0.813	6.04	0.986	> 5	0.886	> 10.2
KS-1 (glioma, adherent)	0.818	7.51	0.878	> 10.2	0.851	> 20	0.619	5.8	0.304	–	0.958	> 10	0.757	2.11	0.694	2.58
KU812 (chronic myeloid leukaemia, suspension)	0.891	9.9	0.037	< 0.04	0.8	8.67	0.514	2.71	0.857	3.61	0.975	> 10	0.77	1.74	0.09	< 0.04
KURAMOCHI (ovary, adherent)	0.984	> 10	0.971	> 10.2	0.889	> 20	0.865	> 40	0.713	1.43	0.973	> 10	0.957	> 5	0.847	9.42
KY821 (leukaemia, suspension)	0.984	> 10	0.99	> 10.2	0.838	11.2	0.745	11.2	0.978	> 5.12	0.987	> 10	0.877	3.94	0.827	5.22
